For 14 molecules, binding signal results are on record in publication PMC12136788.

First the molecules themselves.
T1: UNK ZnF1-3 (human, UniProt Q9C0B0 31-174)
T1 sequence: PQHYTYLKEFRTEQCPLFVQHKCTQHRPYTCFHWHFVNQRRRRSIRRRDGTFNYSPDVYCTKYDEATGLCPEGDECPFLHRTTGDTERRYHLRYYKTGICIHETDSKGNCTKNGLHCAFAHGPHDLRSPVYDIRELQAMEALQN

B1: chr18:34474267:34474268:+_ENSMUSG00000005871_ENSMUST00000115781|mus_mus|motif|central (ssRNA)
RNA: GGGAGUUCUACAGUCCGACGAUCUUCUGAUUCAGUUUCAUUCCCAUUGUCGUUUUCCUGAACUGGAGGCAUGAUUCUUAAUUCGGCAUCUUUCUGUAUAAAUGGCUCAUCCAGGCUCAGAGCACUUAGGCUGGAGGAACAAGACAACAGAGGAUUGAGCAUCA
B2: chr22:32879901:32879902:+_ENSG00000100225_ENST00000397426|hu_mus|hu_hu_hu_mus_False|18_58 (ssRNA)
RNA: GGGAGUUCUACAGUCCGACGAUCCUCUUCCAUACUCAUGGCAUCCUGAAUUGACUCAGCUUCAACAUUUUGACUAGGCCCUAACAUACUGUCAUCAGUCCAGGCAUCAAAUGGGGUUGCCUGUCCUUGGGAUGAAUCAGUCCCCAACAGAGGAUUGAGCAUCA
B3: chr10:120830595:120830596:-_ENSG00000107581_ENST00000369144|hu_hu|motif|central (ssRNA)
RNA: GGGAGUUCUACAGUCCGACGAUCUUUGAAAGCUUGCUGGGCAAUAUCAUGGUACAGGCGCUCUACUCUAGAAUUGUUUCGGAGAAGGUCCAAACACUGCCUGUAAGACUCCCACAGGAAUUUAACCCAUGGAGUUAAAAGUAACAACAGAGGAUUGAGCAUCA
B4: chr1:163117127:163117128:-_ENSG00000143248_ENST00000313961|hu_mus|hu_hu_hu_mus_False|18_38 (ssRNA)
RNA: GGGAGUUCUACAGUCCGACGAUCUGCUACAAAGGAUGUAACUCAACUCACAGGGCAACUUUUGGAAGCCUGACCAGAUGACUACUUGAUUAGCUCCUGAUAAAACUCAGAGCGCACAAAGCGAGGCAGAGAAUCCUUCUCCAUCAACAGAGGAUUGAGCAUCA
B5: chr11:22899103:22899104:+_ENSMUSG00000007739_ENSMUST00000173867|mus_hu|FALSE|FALSE (ssRNA)
RNA: GGGAGUUCUACAGUCCGACGAUCUAAAAUAUAGGCUCUCUCUUCUCGCAGCACUCGGUCCAUCUGGGCAUAGUCAGAAACCACUAUUUGAUUAUCCAUGUCUGUUUUGGGAGCAGAUAAGCAAAACUGAAUAAGCCCAAUCUUCAACAGAGGAUUGAGCAUCA
B6: chr12:104022963:104022964:-_ENSMUSG00000041702_ENSMUST00000045652|mus_hu|FALSE|FALSE (ssRNA)
RNA: GGGAGUUCUACAGUCCGACGAUCAGAAAAUACAUCUUAGUGUGCAAUCCAAUGCACAUGGAUUGGUAGAUGAAAGGUAAAAUGCAAAAAAGUAUGAAAAUACAGUCCUUUAAAUGUGGCAAUAAAGUUUAACAUACUGAUAUACAACAGAGGAUUGAGCAUCA
B7: chr1:1337531:1337532:-_ENSG00000242485_ENST00000344843|hu_mus|FALSE|FALSE (ssRNA)
RNA: GGGAGUUCUACAGUCCGACGAUCCACCACUCUGGAAAAGAUACCUUCAGGCUCCUUUCCAUCCCCCAAAGCUGCAGCAAAUCCCUCCUGCUGCCUCCGCUUAGCCAAUGCAGCCAAAGAUUUAAACGUCUUUGGUUCAUAGAUCAACAGAGGAUUGAGCAUCA
B8: chrX:69798090:69798091:-_ENSMUSG00000031343_ENSMUST00000055966|mus_mus|mus_mus_mus_hu_False|38_48 (ssRNA)
RNA: GGGAGUUCUACAGUCCGACGAUCAAGUCCCCGGGUUCUUGUCGUCUUGAUUCCCCUUGACCAGUGGUUCCAGGGAGAAUAUUAAUCAGGAGAAGAAGUACAACUCUGGUCAUGUAACAGUGACUUGUUUGUGUGAUUAUCAUCCAACAGAGGAUUGAGCAUCA
B9: chr3:96579679:96579680:+_ENSMUSG00000028098_ENSMUST00000029740|mus_mus|FALSE|FALSE (ssRNA)
RNA: GGGAGUUCUACAGUCCGACGAUCAGGCCGACUUGGUCCCCAAAAGUCAGUGUGAGUUUGGUGACCUCUCUCAUUGGCUCUAUUAUCUUGGUCCAGUGGAUUGCUACUUAGAAAUGGUCUAAAAUCUUGUAAAAACAUUGUGUGCAACAGAGGAUUGAGCAUCA
B10: chr1:163112212:163112213:-_ENSG00000143248_ENST00000313961|hu_hu|motif|central (ssRNA)
RNA: GGGAGUUCUACAGUCCGACGAUCUUUAUUUAUCCAGAAGCAUGAGUCACAUAGUACAUAAAGUAUUGAAUACAAAAUUCGGAAGAUAAACACAAUUUUUCUUGAAUUUAAAAUAUAUGGGAUAAAUGCUUACAAAUGGAUUUACAACAGAGGAUUGAGCAUCA
B11: chr13:77182921:77182922:-_ENSMUSG00000021597_ENSMUST00000151524|mus_mus|FALSE|FALSE (ssRNA)
RNA: GGGAGUUCUACAGUCCGACGAUCAGUAUGCACUCCAGGACAUACAUUUAGAUUCUCAGGCAGCUCUUUAAGAACACUUGGGAGCUUCUUUAAUGUCUUUAUAUUCCUAGCAUAAACAUCCAAUAACCAGUCAGUAUGUGCAUUCAACAGAGGAUUGAGCAUCA
B12: chr19:8913615:8913616:-_ENSMUSG00000071658_ENSMUST00000096259|mus_hu|mus_mus_mus_hu_False|8_18 (ssRNA)
RNA: GGGAGUUCUACAGUCCGACGAUCAGGGUACCAAAACCUUCUGCCUGAAAUGGGUGCCCCACCCAGUAGGGAGUUGCAGCUGAAAGUAUCUGAUGCAGAAGCAGUGACUAUACGAAAGGUCACUAGAGAUGCUCAGAAGGCCAGCAACAGAGGAUUGAGCAUCA
B13: chr7:66532262:66532263:+_ENSMUSG00000025326_ENSMUST00000107537|mus_mus|motif|central (ssRNA)
RNA: GGGAGUUCUACAGUCCGACGAUCUCCUUGAACUAGGCUGUAAAGAACAGUGAUUCUUCUUUCACUGUACAUGCGAAUUCGGUUGUCAUAAUAUAAUCCCAGAUUCUUUGUGACAGCAUUCAAUAUAAAGGGACAUGUCAUAAACAACAGAGGAUUGAGCAUCA
B14: chr8:95500983:95500984:-_ENSG00000164944_ENST00000437199|hu_hu|hu_hu_hu_mus_True|28_88 (ssRNA)
RNA: GGGAGUUCUACAGUCCGACGAUCAGAACACAUCUAUCGAGUAAAGGGAGCGUACAUACGGCCUCUACCACUGCCUCCACUAACAAACUUUCCUCUCGAGCCUCCACCUGCCGCUAUUGUACUAGCCCAGGACGGUCCCAGGCCCAACAGAGGAUUGAGCAUCA

This is one part of the list.

This assay concerns the target T1, UNK ZnF1-3. Description: nsRBNS (natural sequence RNA bind-n-seq); RBNS binding buffer (assumed for nsRBNS): 25 mM Tris pH 7.5, 150 mM KCl, 3 mM MgCl2, 0.01% Triton X-100, 500 ug/ml BSA, 20 U/ml SUPERase-In, 4 C; UNK is unkempt and MSI1 is Musashi-1; names of the RNAs are library labels; protein concentration not given here; high values mean tight binding.
In turn, B1 showed a binding signal of 0.923 enrichment R. In the case of B2 it was 1.09 enrichment R. In the case of B3 it was 0.841 enrichment R. B4 had a binding signal of 1.15 enrichment R. With B5, the binding signal was 1.09 enrichment R.

B6: the binding signal is 1.11 enrichment R. For B7 the value was 1.02 enrichment R; for B8, 0.763 enrichment R.

Turning to B9, the binding signal is 1.02 enrichment R. B10: the binding signal was 2.69 enrichment R. In turn, B11 yielded a binding signal of 0.963 enrichment R.

The molecule B12 had a binding signal of 1.05 enrichment R. For B13 the value was 0.479 enrichment R; for B14, 2.04 enrichment R.
